# Measured values as given in the supplement of paper PMC8728848.
# This is one part of the list.
# B1: AidA (Burkholderia cenocepacia) (protein)
# chain: MSRVTDVLVSFDTETILKKYPNPSKNPAAPTLIDWRYVYMVTNQDNVISGQAGGELDLKAQVGDLIRWRETSLSLGFENQVVFYKFIGNVGNDLISTPTPRVAEASIPVPNTSKPEVPTCQKVANYYWSSECLKVGRVTYHFQFQIIDRNCQSQGCFSWDPFISIHN
# Experiments:
# Assay in all cases: glycan array binding signal (z-score within array); higher = stronger binding
# Conditions in all cases: glycan notation: IUPAC condensed, linker removed
# [1] = target: Fuc(a1-2)[Gal(a1-3)]Gal(b1-4)GlcNAc(b1-2)Man(a1-3)[Fuc(a1-2)[Gal(a1-3)]Gal(b1-4)GlcNAc(b1-2)Man(a1-6)]Man(b1-4)GlcNAc(b1-4)[Fuc(a1-6)]GlcNAc
# In short: (§1)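 Columns mapping to the same glycan were averaged after glycan names were converted to IUPAC-condensed notation. The data come from 3228 arrays in the Consortium for Functional Glycomics database, limited to those with an available protein sequence. Binding is reported as a within-array Z-score averaged across arrays of one protein sequence and across linkers.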
# [2] = target: Fuc(a1-2)[Gal(a1-3)]Gal(b1-4)GlcNAc(b1-3)GalNAc
# In short: as §1
# [3] = target: Fuc(a1-2)[Gal(a1-3)]Gal(b1-4)GlcNAc(b1-3)[Fuc(a1-2)[Gal(a1-3)]Gal(b1-4)GlcNAc(b1-6)]GalNAc
# In short: as §1
# [4] = target: Fuc(a1-2)[Gal(a1-3)]Gal(b1-4)GlcNAc(b1-6)GalNAc
# In short: as §1
# [5] = target: Fuc(a1-2)[Gal(a1-3)]Gal(b1-4)[Fuc(a1-3)]Glc
# In short: as §1
# [6] = target: Fuc(a1-2)[Gal(a1-3)]Gal(b1-4)[Fuc(a1-3)]GlcNAc
# In short: as §1
# [7] = target: Fuc(a1-2)[Gal(a1-3)]Gal(b1-4)[Fuc(a1-3)]GlcNAc(b1-3)GalNAc
# In short: as §1
# [8] = target: Fuc(a1-2)[Gal(a1-4)]Gal(b1-4)GlcNAc
# In short: as §1
# [9] = target: Fuc(a1-2)[GalNAc(a1-3)]Gal
# In short: as §1
# [10] = target: Fuc(a1-2)[GalNAc(a1-3)]Gal(b1-3)GalNAc(a1-3)[Fuc(a1-2)]Gal(b1-4)GlcNAc
# In short: as §1
# [11] = target: Fuc(a1-2)[GalNAc(a1-3)]Gal(b1-3)GalNAc(b1-3)Gal(a1-4)Gal(b1-4)Glc
# In short: as §1
# [12] = target: Fuc(a1-2)[GalNAc(a1-3)]Gal(b1-3)GlcNAc
# In short: as §1
# [13] = target: Fuc(a1-2)[GalNAc(a1-3)]Gal(b1-3)GlcNAc(b1-2)Man(a1-3)[Fuc(a1-2)[GalNAc(a1-3)]Gal(b1-3)GlcNAc(b1-2)Man(a1-6)]Man(b1-4)GlcNAc(b1-4)GlcNAc
# In short: as §1
# [14] = target: Fuc(a1-2)[GalNAc(a1-3)]Gal(b1-3)GlcNAc(b1-2)Man(a1-3)[Fuc(a1-2)[GalNAc(a1-3)]Gal(b1-3)GlcNAc(b1-2)Man(a1-6)]Man(b1-4)GlcNAc(b1-4)[Fuc(a1-6)]GlcNAc
# In short: as §1
# [15] = target: Fuc(a1-2)[GalNAc(a1-3)]Gal(b1-3)GlcNAc(b1-3)GalNAc
# In short: as §1
# [16] = target: Fuc(a1-2)[GalNAc(a1-3)]Gal(b1-3)GlcNAc(b1-6)GalNAc
# In short: as §1
# [17] = target: Fuc(a1-2)[GalNAc(a1-3)]Gal(b1-4)Glc
# In short: as §1
# [18] = target: Fuc(a1-2)[GalNAc(a1-3)]Gal(b1-4)GlcNAc
# In short: as §1
# [19] = target: Fuc(a1-2)[GalNAc(a1-3)]Gal(b1-4)GlcNAc(b1-2)Man
# In short: as §1
# [20] = target: Fuc(a1-2)[GalNAc(a1-3)]Gal(b1-4)GlcNAc(b1-2)Man(a1-3)[Fuc(a1-2)[GalNAc(a1-3)]Gal(b1-4)GlcNAc(b1-2)Man(a1-6)]Man(b1-4)GlcNAc(b1-4)GlcNAc
# In short: as §1
# [21] = target: Fuc(a1-2)[GalNAc(a1-3)]Gal(b1-4)GlcNAc(b1-2)Man(a1-3)[Fuc(a1-2)[GalNAc(a1-3)]Gal(b1-4)GlcNAc(b1-2)Man(a1-6)]Man(b1-4)GlcNAc(b1-4)[Fuc(a1-6)]GlcNAc
# In short: as §1
# [22] = target: Fuc(a1-2)[GalNAc(a1-3)]Gal(b1-4)GlcNAc(b1-3)Gal(b1-4)GlcNAc
# In short: as §1
# [23] = target: Fuc(a1-2)[GalNAc(a1-3)]Gal(b1-4)GlcNAc(b1-3)Gal(b1-4)GlcNAc(b1-3)Gal(b1-4)GlcNAc
# In short: as §1
# [24] = target: Fuc(a1-2)[GalNAc(a1-3)]Gal(b1-4)GlcNAc(b1-3)GalNAc
# In short: as §1
# [25] = target: Fuc(a1-2)[GalNAc(a1-3)]Gal(b1-4)GlcNAc(b1-3)[Fuc(a1-2)[GalNAc(a1-3)]Gal(b1-4)GlcNAc(b1-6)]GalNAc
# In short: as §1
# [26] = target: Fuc(a1-2)[GalNAc(a1-3)]Gal(b1-4)GlcNAc(b1-6)GalNAc
# In short: as §1
# [27] = target: Fuc(a1-2)[GalNAc(a1-3)]Gal(b1-4)[Fuc(a1-3)]GlcNAc
# In short: as §1
# [28] = target: Fuc(a1-2)[GalNAc(a1-3)]Gal(b1-4)[Fuc(a1-3)]GlcNAc(b1-3)GalNAc
# In short: as §1
# [29] = target: Fuc(a1-2)[GalNAc(a1-4)]Gal(b1-4)GlcNAc
# In short: as §1
# [30] = target: Fuc(a1-2)[GalNAc(b1-3)]Gal
# In short: as §1
# Fuc(a1-3)GlcNAc = target: Fuc(a1-3)GlcNAc
# In short: as §1
# [31] = target: Fuc(a1-3)[Gal(b1-4)]Glc6S
# In short: as §1
# [32] = target: Fuc(a1-3)[Gal(b1-4)]GlcNAc
# In short: as §1
# [33] = target: Fuc(a1-3)[Gal(b1-4)]GlcNAc(b1-2)Man
# In short: as §1
# [34] = target: Fuc(a1-3)[Gal(b1-4)]GlcNAc(b1-2)Man(a1-3)[Fuc(a1-3)[Gal(b1-4)]GlcNAc(b1-2)Man(a1-6)]Man(b1-4)GlcNAc(b1-4)GlcNAc
# In short: as §1
# [35] = target: Fuc(a1-3)[Gal(b1-4)]GlcNAc(b1-2)Man(a1-3)[Fuc(a1-3)[Gal(b1-4)]GlcNAc(b1-2)Man(a1-6)]Man(b1-4)GlcNAc(b1-4)[Fuc(a1-6)]GlcNAc
# In short: as §1
# [36] = target: Fuc(a1-3)[Gal(b1-4)]GlcNAc(b1-3)Gal(b1-3)[Fuc(a1-4)]GlcNAc
# In short: as §1
# [37] = target: Fuc(a1-3)[Gal(b1-4)]GlcNAc(b1-3)Gal(b1-4)[Fuc(a1-3)]GlcNAc
# In short: as §1
# [38] = target: Fuc(a1-3)[Gal(b1-4)]GlcNAc(b1-3)Gal(b1-4)[Fuc(a1-3)]GlcNAc(b1-3)Gal(b1-4)[Fuc(a1-3)]GlcNAc
# In short: as §1
# [39] = target: Fuc(a1-3)[Gal(b1-4)]GlcNAc(b1-3)GalNAc
# In short: as §1
# [40] = target: Fuc(a1-3)[Gal(b1-4)]GlcNAc(b1-6)GalNAc
# In short: as §1
# [41] = target: Fuc(a1-3)[Gal(b1-4)]GlcNAc(b1-6)[Gal(b1-3)GlcNAc(b1-3)]Gal(b1-4)Glc
# In short: as §1
# [42] = target: Fuc(a1-3)[Gal(b1-4)]GlcNAc6S
# In short: as §1
# [43] = target: Fuc(a1-3)[Gal3S(b1-4)]Glc
# In short: as §1
# [44] = target: Fuc(a1-3)[Gal3S(b1-4)]GlcNAc
# In short: as §1
binder,measurement,setting,value
B1,glycan array binding signal (z-score),[1],0.334
same,glycan array binding signal (z-score),[2],0.22
same,glycan array binding signal (z-score),[3],0.451
same,glycan array binding signal (z-score),[4],0.125
same,glycan array binding signal (z-score),[5],-0.42
same,glycan array binding signal (z-score),[6],-0.366
same,glycan array binding signal (z-score),[7],-0.44
same,glycan array binding signal (z-score),[8],0.257
same,glycan array binding signal (z-score),[9],-0.281
same,glycan array binding signal (z-score),[10],0.483
same,glycan array binding signal (z-score),[11],-0.023
same,glycan array binding signal (z-score),[12],-0.054
same,glycan array binding signal (z-score),[13],0.186
same,glycan array binding signal (z-score),[14],-0.415
same,glycan array binding signal (z-score),[15],1.31
same,glycan array binding signal (z-score),[16],1.7
same,glycan array binding signal (z-score),[17],-0.083
same,glycan array binding signal (z-score),[18],-0.218
same,glycan array binding signal (z-score),[19],-0.558
same,glycan array binding signal (z-score),[20],-0.021
same,glycan array binding signal (z-score),[21],0.094
same,glycan array binding signal (z-score),[22],-0.23
same,glycan array binding signal (z-score),[23],0.982
same,glycan array binding signal (z-score),[24],0.188
same,glycan array binding signal (z-score),[25],-0.136
same,glycan array binding signal (z-score),[26],-0.35
same,glycan array binding signal (z-score),[27],-0.284
same,glycan array binding signal (z-score),[28],19.7
same,glycan array binding signal (z-score),[29],-0.07
same,glycan array binding signal (z-score),[30],0.114
same,glycan array binding signal (z-score),Fuc(a1-3)GlcNAc,-0.017
same,glycan array binding signal (z-score),[31],-0.308
same,glycan array binding signal (z-score),[32],0.172
same,glycan array binding signal (z-score),[33],0.556
same,glycan array binding signal (z-score),[34],-0.601
same,glycan array binding signal (z-score),[35],-0.556
same,glycan array binding signal (z-score),[36],-0.459
same,glycan array binding signal (z-score),[37],0.133
same,glycan array binding signal (z-score),[38],-0.21
same,glycan array binding signal (z-score),[39],-0.029
same,glycan array binding signal (z-score),[40],0.097
same,glycan array binding signal (z-score),[41],-0.816
same,glycan array binding signal (z-score),[42],-0.229
same,glycan array binding signal (z-score),[43],-0.269
same,glycan array binding signal (z-score),[44],1.39
